Laboratory results published in the supplement of paper PMC3334620.
The full ranking holds about 33,000 sequences; the median of “E-score (-0.5 to 0.5)” is about -0.016, and the highest 2% start at about 0.31. The list shows a part of the results.

Target: Cst6 (UniProt P40535)
Experiment: PBM E-score (8-mer binding enrichment) (E-score (-0.5 to 0.5)); higher = stronger / more preferred TF binding; most listed sequences are background and not binding sites
Details: protein concentration: 200 nM; construct: GST-DNA-binding domain
Procedure: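 Universal 'all 10-mer' protein binding microarrays (Agilent AMADID 015681) probed with GST-tagged S. cerevisiae TFs (full-length or DBD) made by in vitro transcription/translation (PURExpress), about 100-200 nM. Bound TF was detected with fluorescent anti-GST. Each ungapped 8-mer (which stands for itself and its reverse complement) is scored by the PBM enrichment score (E-score), a modified Wilcoxon-Mann-Whitney statistic from -0.5 to +0.5, computed with the Universal PBM Analysis Suite. Scale: above 0.35 generally sequence-specific binding.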

Row | Sequence | PBM E-score
1 | AGCTTTAA | 0.127
2 | GAATCGTA | -0.0222
3 | AGATTACA | 0.251
4 | GCTAAACC | -0.147
5 | CCTCAGCC | -0.137
6 | GGTCAACC | -0.0743
7 | CAACCGTG | -0.0377
8 | CCCACATC | -0.177
9 | ACGAGTAC | -0.00835
10 | AGAGGAGG | -0.341
11 | ATACGCCA | 0.0689
12 | CACGCCCA | -0.21
13 | AAGGAATA | 0.0503
14 | CGGCGGGA | 0.0517
15 | CCAAAGAG | -0.0609
16 | TCGTATAA | 0.145
17 | AAATAACC | 0.0821
18 | AATTTTGG | 0.163
19 | GAGGTGAA | -0.0049
20 | CGTCGAAA | 0.211
21 | GCTTCAAC | -0.0993
22 | GGCCGAAC | -0.258
23 | CCCTCCGG | -0.443
24 | GCATGTCA | 0.287
25 | CGCCAGTA | -0.0657

Row | Sequence | PBM E-score
26 | GATCGTAC | -0.335
27 | AAGGTCCG | -0.257
28 | GATTCGCC | 0.0182
29 | CAGTTTCC | -0.165
30 | TGGCCAAA | 0.0412
31 | ACCACCTC | -0.109
32 | CCCTACAA | 0.00415
33 | GGAGGGTA | -0.097
34 | AGTCGTCA | 0.268
35 | GGCAAAAA | 0.23
36 | AAAACGCG | 0.205
37 | ACATCTCT | 0.0423
38 | AACATTTG | -0.0279
39 | CTAGCTTC | -0.183
40 | GCCTGACA | -0.104
41 | CTATCTAC | -0.0129
42 | TCTGTGCA | 0.105
43 | TACCAACA | 0.113
44 | TGGAGAAA | -0.00088
45 | CCAATCTA | -0.011
46 | AATCCCGC | -0.0309
47 | AGTAAGTC | -0.235
48 | CTGTAAAC | 0.0525
49 | TAGAGGGA | -0.0897
50 | CGTATACC | -0.2

Row | Sequence | PBM E-score
51 | CTTCCCTC | -0.293
52 | ACCTCCCT | -0.312
53 | ACGCCACA | 0.178
54 | CGGCATCC | 0.199
55 | AAGCAGGT | 0.0005
56 | ACCGGAGC | -0.183
57 | CGAATACG | 0.242
58 | CAACCTCG | 0.0645
59 | ATGGGAAG | -0.153
60 | AACTTGTG | 0.0771
61 | AGAATCTA | 0.0654
62 | CGTCCAAA | 0.197
63 | AAACGATA | 0.177
64 | ATTTTAGG | 0.212
65 | ATTAATTG | 0.253
66 | ACGTTCCC | -0.267
67 | CCAATAGC | -0.261
68 | CTGGACAG | -0.281
69 | CACACCTC | -0.12
70 | ACAGCATC | 0.0152
71 | AATGAGGA | -0.196
72 | CTTGCAAG | 0.0976
73 | ATAGCGTA | 0.18
74 | ATATGTTA | 0.128
75 | TACCCTGA | -0.0923

Row | Sequence | PBM E-score
76 | CTGACGAC | 0.216
77 | AGACGCGA | -0.0142
78 | CTTGCGTA | 0.216
79 | ACATCCCG | -0.0915
80 | ACACGCCG | 0.166
81 | GTGCCCGA | -0.168
82 | AAGTACTG | -0.0496
83 | AAACACAA | 0.0849
84 | AGCAAGAC | 0.064
85 | CGGAGGAC | -0.313
86 | AACGGGTA | 0.084
87 | AAAAGTAG | 0.185
88 | CACCGACA | 0.131
89 | AGAGTGAG | 0.076
90 | ACTTGTCA | 0.0443
91 | ATGTGTAG | 0.0753
92 | CTCGTGTA | 0.0233
93 | GCGATCGC | 0.039
94 | GGAGGTAA | -0.0533
95 | AGAGCTCA | -0.192
96 | ACCTCATA | 0.247
97 | AGTGCAAT | -0.0018
98 | CCTCGCGC | 0.103
99 | ATACCTGA | 0.208
100 | CTCATAAA | 0.06

Row | Sequence | PBM E-score
101 | CCTAGACA | -0.222
102 | CGATTTGC | -0.132
103 | ATCTAGAG | -0.0462
104 | ATCTATGA | 0.164
105 | AGGCCCCG | -0.256
106 | CAGGTGAC | 0.258
107 | CGGTCCTC | -0.133
108 | CGAAACTA | 0.0426
109 | GGTCATGA | 0.239
110 | CGCGACGC | 0.0713
111 | TCAAGCGA | -0.00748
112 | CCGGCGCA | -0.107
113 | CAAGACAC | 0.128
114 | CGTACTCA | 0.1
115 | GGGACAGA | -0.344
116 | GATTACAA | 0.22
117 | ATTGGTCG | 0.069
118 | CGCTGTGA | 0.089
119 | AGCCGGTA | -0.163
120 | CCCCCCAG | -0.451
121 | GGCTTGAC | -0.0856
122 | ACAATGAA | 0.129
123 | ACGGAATA | 0.0756
124 | ACGCCGGA | -0.191
125 | CCCGTCGC | -0.149

Row | Sequence | PBM E-score
126 | AAACACCC | -0.0869
127 | ATTCACAG | -0.0526
128 | ATGAGAGG | -0.17
129 | AGCCCGTA | -0.174
130 | ACGAAGAA | 0.243
131 | AGAGCTTG | -0.126
132 | GTACGATA | 0.106
133 | AACGTTTA | 0.0545
134 | GCCACTCC | -0.0261
135 | CCAACTGA | -0.00904
136 | AAACATGT | 0.24
137 | CGTCATAA | 0.476
138 | AAATCCAC | 0.0281
139 | GTTGCACA | -0.0605
140 | CAAAATTA | 0.233
141 | CCCCAAGG | -0.26
142 | CTGCTTCA | -0.0807
143 | CGAATGAA | 0.0688
144 | CTTTTGCC | 0.095
145 | GGACAGCA | -0.0265
146 | GAGACCCC | -0.279
147 | ATTTCCTG | 0.101
148 | ATATACTG | 0.152
149 | ATTTTTTC | 0.265
150 | AGGCAAGC | -0.139

Row | Sequence | PBM E-score
151 | CCAAGTAG | -0.198
152 | CCTGGTCG | -0.266
153 | CGAGATTC | -0.0273
154 | CATGATAC | 0.251
155 | CGTCCCTA | 0.026
156 | CTGGCTGC | -0.323
157 | CCCGTCGA | -0.0608
158 | GATAAAAA | 0.282
159 | AAAGTGTC | -0.117
160 | ACTATGGA | -0.147
161 | AGACTTTG | -0.00622
162 | AGGGGGGG | -0.42
163 | ACTGCTAG | -0.254
164 | AATTTTGA | 0.279
165 | GATCAGTA | 0.197
166 | CCAAGGAA | -0.249
167 | CGAGAACC | -0.0737
168 | CCCCTAGG | -0.319
169 | GAGAGCAC | -0.133
170 | GACAGTAC | -0.067
171 | TATAGTCA | 0.188
172 | GTATGGTA | -0.00272
